Screen size: about 46,000 compounds; about 60 (0.1%) were called active. Inconclusive results (about 3%) are left out. Calls come from the whole dose curve; as a rule, active = well fitted inhibition curve with a large enough effect; inconclusive = small, poorly fitted or top-dose-only effect; inactive = no such curve, though single readings can be large or run the other way. This is one part of the list.
Assay: Primary qHTS assay for Inhibitors of ovarian cancer metastasis using an organotypic tumor microenvironment (TME) model.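 For Potency: count of GFP cancer cells still attached after washing and fixation.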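 For activity change, negative = inhibition: plate controls were DMSO wells for no effect and tomatine positive control wells for full effect.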 Note: nearly all actives have a fitted effect of over 65% in size.
Conditions: SKOV3ip1-GFP adhesion/invasion on 3D omental model, fluorescence; series mostly up to 45.8 µM; activity change, negative = inhibition: at the top concentration
Outline: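 Adhesion/invasion was scored as fixed GFP-labeled SKOV3ip1 cell counts (488/509 nm), normalized to DMSO and tomatine controls. Cancer cells in serum-free medium, with four compound doses (0.36-46 umol/L), sat 2 hr at RT then 16 hr at 37 C on a 48 hr fibroblast/mesothelial/ECM culture.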
Potency is the fitted concentration of half-maximal effect.

SMILES | activity change, negative = inhibition | outcome | Potency
CCN1CCC(N(Cc2cccc(OC)c2)C(=O)Nc2cccc(C)c2C)CC1 | inactive: 5.21% |  | 
COC(=O)C1=C(C)NC(=O)C1(NC(=O)c1ccc(Cl)cc1)C(F)(F)F (configuration not stated) | inactive: 0.898% |  | 
CC(=O)[C@H]1CC[C@H]2[C@@H]3CC=C4C[C@@H](O)CC[C@]4(C)[C@H]3CC[C@]12C | inactive: 33.4% |  | 
CCc1ccc(NC(=O)N2CCN(Cc3nc4ccc(C)cc4o3)CC2)cc1 | inactive: 0.82% |  | 
CCCCNC(=O)Nc1ccc2c(c1)N(C)C(=O)c1ccccc1S2 |  | inactive | 
CCN(CC)C(=O)CN1C(=O)COc2ccc(S(=O)(=O)N3CCOCC3)cc21 |  | inactive | 
O=C(CSc1nc2c([nH]c3ccccc32)c(=O)n1-c1ccc(Cl)cc1)NC1CCCCC1 | inactive: 6.81% |  | 
CC(=O)Nc1ccc(S(=O)(=O)NCC2CCC(C(=O)NCc3ccccc3)CC2)cc1 (configuration not stated) |  | inactive | 
CCOc1cc(C(Nc2cc(C)ccn2)c2ccc3cccnc3c2O)ccc1OC (configuration not stated) |  | inactive | 
Cc1ccc(N2CCN(C(=O)c3cn(C)c4ccc(S(=O)(=O)N5CCCC5)cc4c3=O)CC2C)cc1 (configuration not stated) | inactive: -0.46% |  | 
Cc1cc(Nc2cccc(Br)c2)n2c(nc3ccccc32)c1C#N |  | inactive | 
COc1ccccc1NC(=O)c1c(C)cc(C)nc1SCC(=O)Nc1ccc(C)cc1 | inactive: -23.9% |  | 
COc1ccc(NC(=O)Cn2nnc(C(=O)NCc3ccco3)c2N)c(OC)c1 |  | inactive | 
COc1ccc(CC2c3cc(OC)c(OC)cc3CC[N+]2(C)CCC(=O)OCCCCCOC(=O)CC[N+]2(C)CCc3cc(OC)c(OC)cc3C2Cc2ccc(OC)c(OC)c2)cc1OC (configuration not stated) | inactive: 13.2% [at 5.15 µM] |  | 
Cc1ccc2c(c1)c(=O)c1ccccc1n2CCCC(=O)Nc1ccc(Cl)c(Cl)c1 | inactive: -0.693% |  | 
Cc1cc(C)cc(-n2c(SCC(=O)NCc3ccc(F)cc3)nc3c([nH]c4ccccc43)c2=O)c1 | inactive: -20.4% |  | 
COc1cc(NC(=O)CSc2nc(-c3ccccc3)no2)cc(OC)c1 | inactive: -2.22% |  | 
CCOc1ccc(NC(=O)CN2C(=O)c3ccccc3Sc3ccc(C(=O)OC)cc32)cc1 |  | inactive | 
O=C(C1CCC(Cn2c(=O)c3sccc3n(Cc3ccccc3F)c2=O)CC1)N1CCOCC1 (configuration not stated) | inactive: 0.731% |  | 
COc1cc(NC(=O)c2cc3c(=O)n(Cc4ccco4)ccc3nc2C)cc(OC)c1OC | inactive: 1.19% |  | 
COC(=O)c1sc(-c2ccccc2)cc1NC(=O)c1cccc(Cl)c1 | inactive: -0.184% |  | 
Cc1cccc(C)c1NC(=O)C(=O)NCC(c1cccnc1)N1CCc2ccccc21 (configuration not stated) |  | inactive | 
COc1cccc(NC(=O)CN2C(=O)CC(c3ccco3)Sc3ccccc32)c1 (configuration not stated) | inactive: 11.4% |  | 

SMILES | activity change, negative = inhibition | outcome | Potency
O=C(Nc1nc(-c2ccccc2)ns1)c1ccc(Cl)cc1 | inactive: 23.8% |  | 
COc1ccccc1N1CCN(C(=O)c2ccc3c(c2)N(Cc2cc(C)ccc2C)C(=O)c2ccccc2S3(=O)=O)CC1 | inactive: 1.83% |  | 
COc1ccc(CN(C(=O)c2cc(=O)c3ccccc3o2)C2CCS(=O)(=O)C2)cc1OC (configuration not stated) | inactive: -5.94% |  | 
Cc1cccc(NC(=O)C(NS(=O)(=O)c2cccc3nsnc23)c2ccccc2)c1C (configuration not stated) | inactive: 6.61% |  | 
CCN(CC)c1ccc(NC(=O)C2CCN(S(=O)(=O)c3ccc4c(c3)oc(=O)n4C)CC2)c(C)c1 |  | inactive | 
CC(C(=O)O)c1ccc2c(c1)CC(=O)c1ccccc1S2 (configuration not stated) | inactive: -23% |  | 
CCOC(=O)N1CCc2c(sc(NCc3cccs3)c2C(=O)Nc2cc(Cl)ccc2OC)C1 | inactive: 1.13% |  | 
CCOC(=O)c1ccc(NS(=O)(=O)c2ccc3c(c2)CCN3C(=O)CC)cc1 | inactive: 7.51% |  | 
Cc1ccc(C(=O)NCC(c2ccco2)S(=O)(=O)c2ccccc2)cc1C (configuration not stated) | inactive: 16.3% |  | 
COc1cc2c(=O)c(S(=O)(=O)c3ccc(C(C)C)cc3)cn(Cc3ccccc3C)c2cc1OC |  | inactive | 
CCOC(=O)c1c(C)c(-c2ccccc2)n(CC(=O)NCc2ccccc2)c1C | inactive: -25.3% |  | 
CC(C)(C)OC(=O)N1CCC(c2c(C(=O)N3CCN(c4ccccn4)CC3)cnn2-c2cccc(F)c2)CC1 | inactive: 6.3% |  | 
Cc1ccc(NC(=O)Cn2c(=O)n(Cc3ccco3)c(=O)c3sc4ccccc4c32)c(C)c1 | inactive: -12.3% |  | 
COc1ccc(N2CCN(S(=O)(=O)c3cc(Br)cc4c3N(C(=O)C3CC3)CC4)CC2)cc1 |  | inactive | 
CCOC(=O)c1cc(-c2ccccc2)n(CCC(=O)NCCc2ccc(C)cc2)c1C |  | inactive | 
COc1ccc(-n2nc(C(=O)N3CCCCC3)c3c4ccccc4n(C)c3c2=O)cc1Cl | inactive: -13.9% |  | 
Cc1ccc(S(=O)(=O)c2nnn(CC(=O)Nc3ccccc3C)c2N)cc1 | inactive: -28.6% |  | 
Cc1cc(C)c(Cn2c(=O)n(Cc3ccccc3)c(=O)c3c(C)c(C)sc32)c(C)c1 | inactive: -1.27% |  | 
O=C(Nc1cccc(C(F)(F)F)c1)c1cc2nc(-c3ccco3)cc(C(F)(F)Cl)n2n1 | inactive: 50.5% |  | 
O=C(CSc1nccn1Cc1ccccc1)Nc1nc2ccccc2s1 |  | inactive | 
O=C(CN1C(=O)COc2ccc(S(=O)(=O)NC3CCCC3)cc21)NCc1ccccc1Cl |  | inactive | 
COc1cc(Nc2nc3ccc(Cl)cc3nc2-n2nc(C)cc2C)cc(OC)c1 | inactive: -9.01% |  | 
CCOC(=O)c1cccc(NC(=O)c2cc(C)nc3c2c(C)nn3-c2ccc(C)cc2)c1 | inactive: 3.49% |  | 

SMILES | activity change, negative = inhibition | outcome | Potency
CCOC(=O)c1ccc(NC(=O)C2=C(C)C(=O)OC23CCN(C(C)=O)CC3)cc1 | inactive: -6.15% |  | 
Cc1ccc(Cl)cc1NC(=O)CCn1cnc2ccccc2c1=O | inactive: -0.968% |  | 
Cc1cc(C)cc(NC(=O)C(=O)NCC(c2cccnc2)N2CCOCC2)c1 (configuration not stated) | inactive: -4.08% |  | 
CCc1cccc(C)c1NC(=O)CSc1n[nH]c(-c2ccccc2)n1 | inactive: -2.42% |  | 
Cn1ncc2c(Nc3cccc(C#N)c3)ncnc21 | inactive: -1.53% |  | 
CCN(CCO)CCCC(C)Nc1ccnc2cc(Cl)ccc12 (configuration not stated) | inactive: -15.6% |  | 
COc1ccc(Cl)cc1NC(=O)Cn1c(=O)n(Cc2ccc(F)cc2)c(=O)c2cccnc21 | inactive: 0.842% |  | 
Cc1ccc(NC(=O)Cn2c(=O)n(CCC(C)C)c(=O)c3cccnc32)cc1C |  | inactive | 
CCC(C(=O)NCCC(C)C)N(C(=O)Cn1nnc(-c2ccc(C)cc2)n1)c1cccc(O)c1 (configuration not stated) |  | inactive | 
CC(=O)OCC(=O)[C@@]1(O)CC[C@H]2[C@@H]3CCC4=CC(=O)CC[C@]4(C)[C@@H]3C(=O)C[C@@]21C | inactive: -2.71% |  | 
Cc1ccccc1OCCSc1nnc(-c2cccs2)o1 | inactive: -3.12% |  | 
CCOc1ccc(NC(=O)C(C)n2c(=O)cc(-c3ccccc3)c3c(C)nn(C)c32)cc1 (configuration not stated) | inactive: 6.25% |  | 
COc1ccccc1N1CCN(C(=O)Cn2c(=O)nc(-c3ccccc3)c3ccccc32)CC1 | inactive: 15.5% |  | 
CC1CN(C(=O)N2CCC(C(=O)NCc3ccccc3F)CC2)c2cc(Cl)ccc2O1 (configuration not stated) |  | inactive | 
O=C(Nc1ccc(F)c(F)c1)C(c1ccccc1)N1Cc2ccccc2C1=O (configuration not stated) | inactive: -10.3% |  | 
O=C(NCc1ccccc1Cl)c1ccc2c(c1)NC(=O)C(CS(=O)(=O)Cc1ccc(Cl)cc1)N2 (configuration not stated) | inactive: 2.34% |  | 
COc1ccccc1-c1nn(CCC(=O)Nc2ccccc2)c2nc(C)cc(C)c12 |  | inactive | 
COc1ccc(CCNC(=O)CN(c2ccccc2)S(=O)(=O)N(C)C)cc1 |  | inactive | 
Cc1ccc2nc(-c3ccc(C)s3)c(Nc3ccc4c(c3)OCCO4)n2c1 |  | inactive | 
CCOC(=O)c1c(C)[nH]c(C)c1S(=O)(=O)N1CCCC(C(=O)N2CCN(c3cccc(Cl)c3)CC2)C1 (configuration not stated) | inactive: 3.79% |  | 
Cc1nn(C(C)C(=O)NCc2ccco2)c(=O)c2nn(-c3ccccc3)c(C)c12 (configuration not stated) | inactive: 4.44% |  | 
Cc1ccc2[nH]cc(C(c3ccccc3)c3ccc(Cl)s3)c2c1 (configuration not stated) | inactive: -7.51% |  | 
COc1ccccc1OCC(=O)NCCS(=O)(=O)N1CCN(c2ccccc2OC)CC1 | inactive: -7.8% |  | 

SMILES | activity change, negative = inhibition | outcome | Potency
Cc1cccc2sc(N(Cc3cccnc3)C(=O)c3ccco3)nc12 | inactive: -0.613% |  | 
CCOc1ccccc1NC(=O)Cn1c(=O)n(CCCC(=O)NCc2ccc(C)cc2)c(=O)c2ccccc21 |  | inactive | 
Cc1ccc(C(=O)N2CCN(CCc3ccncc3)CC2)cc1 | inactive: -4.74% |  | 
CCN(CC)CCNC(=O)c1cc2c(-c3cccc(OC)c3)nn(C)c2s1 | inactive: -1.5% |  | 
CCN1CCN(Cc2ccc(-c3cc4c(N[C@H](C)c5ccccc5)ncnc4[nH]3)cc2)CC1 | inactive: 2.87% |  | 
COc1ccc(-c2nc(S(=O)(=O)c3ccccc3)c(N3CCC(C)CC3)o2)cc1 | inactive: -3.6% |  | 
COc1ccc(NC(=O)C(NS(=O)(=O)c2cccc3nsnc23)C(C)C)cc1OC (configuration not stated) | inactive: -6.65% |  | 
CN1C(=O)c2ccccc2Sc2ccc(NC(=O)N3CCN(c4ccc(F)cc4)CC3)cc21 | inactive: -10.5% |  | 
COc1ccc(S(=O)(=O)Nc2cccc(-c3ccc(N4CCCCC4)nn3)c2)cc1F | inactive: -10.5% |  | 
CCOC(=O)c1c(CSc2ccccc2)n(C)c2cc(Br)c(O)c(CN(C)C)c12 | inactive: -0.11% |  | 
CSc1ccc(CCNC(=O)CN2C(=O)COc3ccc(S(=O)(=O)N4CCCCCC4)cc32)cc1 |  | inactive | 
Cc1ccc(Cl)cc1-n1c(SCC(=O)NCc2ccccc2)nc2n[nH]c(C)c2c1=N | inactive: 0.524% |  | 
COc1ccc(C(=O)NCCc2csc(-c3ccc(Cl)cc3)n2)c(OC)c1 | inactive: 6.37% |  | 
Oc1ccc(NCc2ccccc2OCc2ccccc2)cc1 | inactive: 5.26% |  | 
O=C1c2ccccc2-[n+]2ccc3c([nH]c4ccccc43)c21 |  |  | active: 2.35 µM
Cc1ccn(-c2ccc(-c3ncco3)cc2)c(=O)c1-c1ccc2nc(N)ncc2c1 | inactive: -17.7% |  | 
CCOc1ccc(CNC(=O)c2cc3cc(S(=O)(=O)N4CCCCC4)ccc3n2C)cc1 |  | inactive | 
Cc1cc(C)c(NC(=O)CSC2=Nc3ccccc3C3=NC(CC(=O)NCc4cccs4)C(=O)N23)c(C)c1 (configuration not stated) | inactive: 1.56% |  | 
CCN1CCc2nc3sc(C(=O)Nc4ccccc4OC(F)(F)F)c(N)c3cc2C1 | inactive: -23% |  | 
CCOC(=O)N1CCN(S(=O)(=O)N2CCCC(C(=O)NCc3cc(Br)ccc3OC)C2)CC1 (configuration not stated) | inactive: 7.76% |  | 
Cc1cc(=O)c2cc(C(=O)Nc3ccc(F)cc3)ccc2[nH]1 | inactive: 18.3% |  | 
CC(C)c1ccc2c(c1)c(SC(C)(C)C)c(CC(C)(C)C(=O)O)n2Cc1ccc(Cl)cc1 | inactive: -15.6% |  | 
Cc1ccc(NC(=O)N2CCN(Cc3nc4ccc(C)cc4o3)CC2)cc1 |  | inactive | 
